Earlier results in paper PMC11006913.
The other results are listed elsewhere or left out.

Assays:
[1] = molecular target: PROP1 R112Q (Homo sapiens) (UniProt O75360); conditions: PBM; conditions not shown; double strand, one strand shown; scale: upbm affinity estimate (log intensity, higher = more binding, comparable within an allelic series)
[2] = molecular target: PROP1 R99Q (Homo sapiens) (UniProt O75360); conditions: PBM; conditions not shown; double strand, one strand shown; scale: upbm affinity estimate (log intensity, higher = more binding, comparable within an allelic series)

Q: Which results are given for AGGTCCCC [8-mer AGGTCCCC]?
A: binding signal [1]: 10.8; binding signal [2]: 10.9

Q: Which binding signal [1] does the source give for CCAGGCGA [8-mer CCAGGCGA] here?
A: 10.8

Q: And the binding signal [2]?
A: 10.8

Q: With CCCCCGGC [8-mer CCCCCGGC] as the sequence, how does the binding signal [1] read?
A: 10.8

Q: What about the binding signal [2] of the same sequence?
A: 10.8

Q: With CCCCGGCC [8-mer CCCCGGCC] as the sequence, how does the binding signal [1] read?
A: 10.9

Q: What about the binding signal [2] of the same sequence?
A: 11

Q: For CCCGGCAC [8-mer CCCGGCAC], which binding signal [1] is on record?
A: 10.8

Q: And the binding signal [2]?
A: 10.9

Q: For AAATTATC [8-mer AAATTATC], which binding signal [1] is on record?
A: 12.3

Q: And the binding signal [2]?
A: 11.8

Q: With GGTAATCA [8-mer GGTAATCA] as the sequence, how does the binding signal [1] read?
A: 12.3

Q: And the binding signal [2]?
A: 11.8

Q: For CCGGCTCG [8-mer CCGGCTCG], which binding signal [1] is on record?
A: 10.8

Q: And the binding signal [2]?
A: 10.8

Q: With CGTCCGGC [8-mer CGTCCGGC] as the sequence, how does the binding signal [1] read?
A: 10.8

Q: What about the binding signal [2] of the same sequence?
A: 10.8

Q: Which binding signal [1] does the source give for AGCGCTTG [8-mer AGCGCTTG] here?
A: 10.9

Q: And the binding signal [2]?
A: 11.1

Q: With CCCCGCGG [8-mer CCCCGCGG] as the sequence, how does the binding signal [1] read?
A: 10.9

Q: What about the binding signal [2] of the same sequence?
A: 11

Q: For CTCGGCCC [8-mer CTCGGCCC], which binding signal [1] is on record?
A: 10.8

Q: And the binding signal [2]?
A: 10.8

Q: Which binding signal [1] does the source give for AATTTCCA [8-mer AATTTCCA] here?
A: 12

Q: And the binding signal [2]?
A: 11.6

Q: Which binding signal [1] does the source give for CAGCCCCG [8-mer CAGCCCCG] here?
A: 10.9

Q: What about the binding signal [2] of the same sequence?
A: 11

Q: Which binding signal [1] does the source give for AGCTTAAT [8-mer AGCTTAAT] here?
A: 12.3

Q: What about the binding signal [2] of the same sequence?
A: 11.8

Q: What does the source list for CGGGCCTC [8-mer CGGGCCTC]?
A: binding signal [1]: 10.8; binding signal [2]: 10.8

Q: With CCCGTCGG [8-mer CCCGTCGG] as the sequence, how does the binding signal [1] read?
A: 10.9

Q: What about the binding signal [2] of the same sequence?
A: 10.9

Q: What does the source list for AGGTGGGG [8-mer AGGTGGGG]?
A: binding signal [1]: 10.9; binding signal [2]: 11

Q: For AATCTAAT [8-mer AATCTAAT], which binding signal [1] is on record?
A: 12.4

Q: What about the binding signal [2] of the same sequence?
A: 11.9
